Among all 310,000 compounds or so, about 2,200 (0.71%) showed an effect of 50% or more. Effects have a minus sign here. Some of the results follow.
Each compound was assayed against human ether-à-go-go-related gene (hERG) potassium channel (human, UniProt Q12809) (assay: primary screen, population patch clamp on CHO cells stably expressing hERG).
Chain of human ether-à-go-go-related gene (hERG) potassium channel (Q12809 whole entry, looked up): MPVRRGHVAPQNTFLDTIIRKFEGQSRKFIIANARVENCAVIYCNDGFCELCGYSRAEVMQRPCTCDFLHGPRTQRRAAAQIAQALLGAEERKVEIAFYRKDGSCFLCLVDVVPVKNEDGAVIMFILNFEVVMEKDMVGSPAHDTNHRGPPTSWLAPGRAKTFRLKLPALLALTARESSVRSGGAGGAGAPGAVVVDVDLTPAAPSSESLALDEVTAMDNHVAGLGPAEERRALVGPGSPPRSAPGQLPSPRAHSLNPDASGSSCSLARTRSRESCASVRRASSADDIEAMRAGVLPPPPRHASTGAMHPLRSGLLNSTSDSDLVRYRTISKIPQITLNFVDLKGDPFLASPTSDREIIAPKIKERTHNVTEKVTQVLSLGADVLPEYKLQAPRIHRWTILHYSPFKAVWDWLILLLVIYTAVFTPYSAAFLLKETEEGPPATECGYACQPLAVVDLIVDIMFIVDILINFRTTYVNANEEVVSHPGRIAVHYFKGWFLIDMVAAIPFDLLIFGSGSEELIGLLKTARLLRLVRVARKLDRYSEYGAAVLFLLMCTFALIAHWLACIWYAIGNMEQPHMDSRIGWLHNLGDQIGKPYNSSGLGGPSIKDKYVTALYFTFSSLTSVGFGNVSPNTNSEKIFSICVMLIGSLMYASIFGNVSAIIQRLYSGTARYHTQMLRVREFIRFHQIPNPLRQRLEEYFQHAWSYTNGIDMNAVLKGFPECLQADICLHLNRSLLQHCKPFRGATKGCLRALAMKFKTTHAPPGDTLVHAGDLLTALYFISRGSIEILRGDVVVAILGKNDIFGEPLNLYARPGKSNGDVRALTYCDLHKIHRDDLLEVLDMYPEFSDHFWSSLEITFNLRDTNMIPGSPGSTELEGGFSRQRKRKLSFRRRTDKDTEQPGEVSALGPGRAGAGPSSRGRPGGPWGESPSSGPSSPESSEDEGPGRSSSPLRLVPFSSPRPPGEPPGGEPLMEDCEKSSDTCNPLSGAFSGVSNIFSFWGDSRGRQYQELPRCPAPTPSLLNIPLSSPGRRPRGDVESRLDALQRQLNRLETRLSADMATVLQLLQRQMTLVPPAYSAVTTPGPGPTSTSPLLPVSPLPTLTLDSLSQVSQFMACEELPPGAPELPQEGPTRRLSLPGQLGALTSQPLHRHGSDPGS

Structure (SMILES)	hERG current change (%, negative = inhibition) at 1uM [%]
CCCN(CCC)C(=O)CSc1nc2c(sc(=S)n2-c2ccc(OCC)cc2)c(=O)[nH]1	2.53
Cc1cccc(N2CCN(C(=O)CCC(=O)N3CC(C)Oc4ccccc43)CC2)c1C (stereo not drawn)	1.87
O=C(O)C(=O)O.Oc1ccccc1NCC(O)Cn1ccc2ccccc21 (stereo not drawn)	19
Cc1cccc(N2CCN(C(=O)NCc3ccc(F)cc3)CC2)c1C	-1.23
CCOC(=O)NCc1ccc(S(=O)(=O)Nc2ccccc2C)cc1	-22.2
Cn1cc(C(=O)C(=O)N2CCN(c3ccccc3)CC2)c2ccccc21	6.8
CCC1(C)CC(CCN(Cc2ccco2)C(C)=O)(c2ccccc2)CCO1 (stereo not drawn)	7.64
C=C(C)Cn1cnc2cc(C)c(C)cc21	1.98
CCOc1ccc(-c2nnc3ccc(SC)nn23)cc1	1.91
CCN(CC)S(=O)(=O)c1ccc(OC)c(NC(=O)c2cccs2)c1	16.6
COC(=O)C1=CO[C@@H](O)C2C(CO)=CCC12 (stereo partly drawn)	14.5
O=C(CC1S/C(=N/N=C/c2ccco2)NC1=O)Nc1ccccc1 (stereo not drawn)	14.3
CCC(=O)NCC(c1cccs1)N1CCOCC1.Cl (stereo not drawn)	14.4
CC(C)(C)c1ccc(-c2nnc(SCCN3C(=O)c4ccccc4C3=O)o2)cc1	19.1
CCOCCCNC(=O)C(Cc1ccccc1)NC(=O)c1ccco1 (stereo not drawn)	4.07
Cc1cccc2nc(C(F)(F)F)nc(=O)n12	13.7
Cc1c(CCO)c(=O)[nH]n1S(=O)(=O)c1cccc(C(F)(F)F)c1	7.76
Cc1ccc(C(=O)NCCCNC(=O)c2ccc(Cl)cc2)cn1	8.86
CC(O)c1nc2cc([N+](=O)[O-])ccc2n1Cc1ccccc1 (stereo not drawn)	11.7

Structure (SMILES)	hERG current change (%, negative = inhibition) at 1uM [%]
CC(C(=O)Nc1ccc(Cl)cc1Cl)N1C(=O)NC2(CCCC2)C1=O (stereo not drawn)	1.95
CCCNC(=S)N1CCC(C(=O)c2ccc(F)cc2)CC1	11.9
Cc1nc(-c2ccc(NC(=O)CC(C)C)cc2)cs1.Cl	11.6
COc1ccc(-c2nn(-c3ccccc3)cc2C(=O)O)cc1	17.7
Cc1cccc(NC(=O)[C@H](NC(=O)[C@@H]2Cc3ccccc3CN2)c2ccccc2)c1	0.447
CCCCC(=O)NC(=S)NNC(=O)CC	8.05
Cn1nc(C(F)(F)F)c(C(=O)Nc2ccc(C(F)(F)F)cc2)c1Cl	6.26
CC(NC(=O)c1ccccc1Br)c1nnc(SCc2ccc([N+](=O)[O-])cc2)n1C (stereo not drawn)	-9.79
CCO[C@@H]1OC(C(=O)O)=C[C@H](C)[C@H]1CCCO	15
Cc1ccc(C(=O)Nc2nc(C(C)(C)C)cs2)s1	15.1
Cc1ccc(NC(=O)c2cc(NC(=O)CCCC(=O)O)ccc2Cl)cc1Cl	14.5
CCOC(=O)Cn1c(CN2CC(C)OC(C)C2)nc2c1c(=O)n(C)c(=O)n2C (stereo not drawn)	17.2
CCN(CC)c1nc(Nc2ccc([N+](=O)[O-])cc2)nc(N(CC)CC)n1	5.39
CC(C)NC(=O)COC(=O)c1ccc(S(=O)(=O)N2CCCC2)cc1	19.3
COc1cc(OC)cc(-c2c(-c3ccc(F)cc3)c3cc(-c4ccc5[nH]ccc5c4)ccc3n2C)c1	9.39
CCOc1ccccc1C(=O)NCC(=O)N1CCN(Cc2ccc3c(c2)OCO3)CC1	5.16
CC(=O)c1c(C(C)=O)c(C)n(Cc2ccc(Cl)cc2)c1C	-12.3
CCOc1cccc(C2C(C(=O)c3ccc(C)o3)=C(O)C(=O)N2Cc2ccncc2)c1 (stereo not drawn)	10.2
CC(=O)Nc1ccc(-c2csc(NCc3ccco3)n2)cc1	1.42

Structure (SMILES)	hERG current change (%, negative = inhibition) at 1uM [%]
CCCCN(CCCC)CCCNC(=O)c1ccc2nc(-c3ccccc3NC(C)=O)c(=O)[nH]c2c1	22.9
O=C(NCc1ccccc1)C1CCN(c2nc(-c3ccccc3)nc3c2CCC3)CC1	5.27
O=C(COc1ccc2c3c(c(=O)oc2c1)CCC3)N1C[C@H]2C[C@@H](C1)c1cccc(=O)n1C2	-9.16
N/C(=N\O)c1cn(Cc2ccccc2Cl)c2ccccc12	10.9
CCN(CCn1cccn1)C(=O)c1cc(COc2cccc3cccnc23)on1	5.28
COc1ccc(CCNC(=O)c2cnc(Cl)c(Cl)c2)cc1	10.4
CC(=O)c1c(C(=O)O)[nH]c(C(=O)O)c1C	10.4
O=C(COc1ccccc1Cl)Nc1ccc(CN2CCCCC2)cc1	-2.19
COC(=O)c1ccc(Nc2nc3ccc(C)cc3n3cnnc23)cc1	12.1
CCOC(=O)c1cnn2c(C(F)(F)F)cc(-c3ccco3)nc12	0.177
Cc1ccc(N2CC(=O)N(NC(=O)CN3CCN(c4ccccc4)CC3)CC2=O)cc1	9.63
O=C(C1CC1)N1CCc2cc(S(=O)(=O)NCc3ccccc3)ccc21	14.8
c1ccc(Cn2nnc3c(NCc4ccc5c(c4)OCO5)ncnc32)cc1	4.27
Cc1ccnc(NC(=O)Cc2ccc(F)cc2)n1	-0.374
Cc1cccc(C(=O)NC(C)c2ccc(-n3ccnc3)cc2)c1C (stereo not drawn)	-0.373
Cc1cc(C)n2nc(C(=O)N/N=C/c3cn(C)nc3C)nc2n1	15.2
CCn1c(SC)nnc1C1CCN(S(=O)(=O)c2ccc(OC)cc2)CC1	12.9
C/C(=N\NC(=O)c1nc2ccccn2c1C)c1cc2ccccc2o1	-38.9
CC(C)c1ccc(NC(=O)N(CCc2nc3ccccc3[nH]2)C2CCCC2)cc1	11.7
